{
  "source": "the supplement of paper PMC8728848",
  "binders": {"B1": {"name": "AFCNVH (Aspergillus fumigatus) (protein)", "chain": "MSLRGFHTTCDTIVLKDKHILSSRCKRPDGTYSFSEIDLNDCLGNNNGKFVWGGESFVDSASQVNLALEGGEGRPMLHAQLNDWHGSVQSASVNLGECIQNEAGGLEYMHC"}},
  "assay_in_all_cases": "glycan array binding signal (z-score within array); higher = stronger binding",
  "conditions_in_all_cases": "glycan notation: IUPAC condensed, linker removed",
  "key": {"[1]": {"biological_target": "Neu5Ac(a2-3)Gal(b1-3)]Neu5Ac(a2-3)Gal(b1-4)]GlcNAc", "how_it_was_run": "(§1)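 The binding signal is a Z-score computed within each array. Data were drawn from 3228 arrays in the Consortium for Functional Glycomics database, restricted to those with a known protein sequence. Scores were averaged over arrays of the same protein sequence at different concentrations or buffers, and over linkers, and negative values can be taken as non-binding.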"}, "Neu5Ac(a2-3)Gal(b1-4)Glc": {"biological_target": "Neu5Ac(a2-3)Gal(b1-4)Glc", "how_it_was_run": "as §1"}, "[2]": {"biological_target": "Neu5Ac(a2-3)Gal(b1-4)GlcNAc", "how_it_was_run": "as §1"}, "[3]": {"biological_target": "Neu5Ac(a2-3)Gal(b1-4)GlcNAc(b1-2)Man", "how_it_was_run": "as §1"}, "[4]": {"biological_target": "Neu5Ac(a2-3)Gal(b1-4)GlcNAc(b1-2)Man(a1-3)[GlcNAc(b1-4)][Neu5Ac(a2-3)Gal(b1-4)GlcNAc(b1-2)Man(a1-6)]Man(b1-4)GlcNAc(b1-4)GlcNAc", "how_it_was_run": "as §1"}, "[5]": {"biological_target": "Neu5Ac(a2-3)Gal(b1-4)GlcNAc(b1-2)Man(a1-3)[Neu5Ac(a2-3)Gal(b1-4)GlcNAc(b1-2)Man(a1-6)]Man(b1-4)GlcNAc(b1-4)GlcNAc", "how_it_was_run": "as §1"}, "[6]": {"biological_target": "Neu5Ac(a2-3)Gal(b1-4)GlcNAc(b1-2)Man(a1-3)[Neu5Ac(a2-3)Gal(b1-4)GlcNAc(b1-2)Man(a1-6)]Man(b1-4)GlcNAc(b1-4)[Fuc(a1-6)]GlcNAc", "how_it_was_run": "as §1"}, "[7]": {"biological_target": "Neu5Ac(a2-3)Gal(b1-4)GlcNAc(b1-2)Man(a1-3)[Neu5Ac(a2-6)Gal(b1-4)GlcNAc(b1-2)Man(a1-6)]Man(b1-4)GlcNAc(b1-4)GlcNAc", "how_it_was_run": "as §1"}, "[8]": {"biological_target": "Neu5Ac(a2-3)Gal(b1-4)GlcNAc(b1-2)[Neu5Ac(a2-3)Gal(b1-4)GlcNAc(b1-4)]Man(a1-3)[GlcNAc(b1-4)][Neu5Ac(a2-3)Gal(b1-4)GlcNAc(b1-2)[Neu5Ac(a2-3)Gal(b1-4)GlcNAc(b1-6)]Man(a1-6)]Man(b1-4)GlcNAc(b1-4)GlcNAc", "how_it_was_run": "as §1"}, "[9]": {"biological_target": "Neu5Ac(a2-3)Gal(b1-4)GlcNAc(b1-2)[Neu5Ac(a2-3)Gal(b1-4)GlcNAc(b1-4)]Man(a1-3)[GlcNAc(b1-4)][Neu5Ac(a2-3)Gal(b1-4)GlcNAc(b1-4)Man(a1-6)]Man(b1-4)GlcNAc(b1-4)GlcNAc", "how_it_was_run": "as §1"}, "[10]": {"biological_target": "Neu5Ac(a2-3)Gal(b1-4)GlcNAc(b1-2)[Neu5Ac(a2-3)Gal(b1-4)GlcNAc(b1-6)]Man(a1-6)[Neu5Ac(a2-3)Gal(b1-4)GlcNAc(b1-2)Man(a1-3)][GlcNAc(b1-4)]Man(b1-4)GlcNAc(b1-4)GlcNAc", "how_it_was_run": "as §1"}, "[11]": {"biological_target": "Neu5Ac(a2-3)Gal(b1-4)GlcNAc(b1-3)Gal", "how_it_was_run": "as §1"}, "[12]": {"biological_target": "Neu5Ac(a2-3)Gal(b1-4)GlcNAc(b1-3)Gal(b1-3)GlcNAc", "how_it_was_run": "as §1"}, "[13]": {"biological_target": "Neu5Ac(a2-3)Gal(b1-4)GlcNAc(b1-3)Gal(b1-4)GlcNAc", "how_it_was_run": "as §1"}, "[14]": {"biological_target": "Neu5Ac(a2-3)Gal(b1-4)GlcNAc(b1-3)Gal(b1-4)GlcNAc(b1-2)Man(a1-3)[Neu5Ac(a2-3)Gal(b1-4)GlcNAc(b1-3)Gal(b1-4)GlcNAc(b1-2)Man(a1-6)]Man(b1-4)GlcNAc(b1-4)GlcNAc", "how_it_was_run": "as §1"}, "[15]": {"biological_target": "Neu5Ac(a2-3)Gal(b1-4)GlcNAc(b1-3)Gal(b1-4)GlcNAc(b1-3)Gal(b1-4)GlcNAc", "how_it_was_run": "as §1"}, "[16]": {"biological_target": "Neu5Ac(a2-3)Gal(b1-4)GlcNAc(b1-3)Gal(b1-4)GlcNAc(b1-3)Gal(b1-4)GlcNAc(b1-2)Man(a1-3)[Neu5Ac(a2-3)Gal(b1-4)GlcNAc(b1-3)Gal(b1-4)GlcNAc(b1-3)Gal(b1-4)GlcNAc(b1-2)Man(a1-6)]GalNAc", "how_it_was_run": "as §1"}, "[17]": {"biological_target": "Neu5Ac(a2-3)Gal(b1-4)GlcNAc(b1-3)Gal(b1-4)GlcNAc(b1-3)GalNAc", "how_it_was_run": "as §1"}, "[18]": {"biological_target": "Neu5Ac(a2-3)Gal(b1-4)GlcNAc(b1-3)Gal(b1-4)GlcNAc(b1-3)[Neu5Ac(a2-3)Gal(b1-4)GlcNAc(b1-3)Gal(b1-4)GlcNAc(b1-6)]GalNAc", "how_it_was_run": "as §1"}, "[19]": {"biological_target": "Neu5Ac(a2-3)Gal(b1-4)GlcNAc(b1-3)Gal(b1-4)GlcNAc(b1-6)[Gal(b1-3)]GalNAc", "how_it_was_run": "as §1"}, "[20]": {"biological_target": "Neu5Ac(a2-3)Gal(b1-4)GlcNAc(b1-3)Gal(b1-4)[Fuc(a1-3)]GlcNAc", "how_it_was_run": "as §1"}, "[21]": {"biological_target": "Neu5Ac(a2-3)Gal(b1-4)GlcNAc(b1-3)GalNAc", "how_it_was_run": "as §1"}, "[22]": {"biological_target": "Neu5Ac(a2-3)Gal(b1-4)GlcNAc(b1-3)[Neu5Ac(a2-3)Gal(b1-4)GlcNAc(b1-6)]GalNAc", "how_it_was_run": "as §1"}, "[23]": {"biological_target": "Neu5Ac(a2-3)Gal(b1-4)GlcNAc(b1-6)GalNAc", "how_it_was_run": "as §1"}, "[24]": {"biological_target": "Neu5Ac(a2-3)Gal(b1-4)GlcNAc(b1-6)[Gal(b1-3)]GalNAc", "how_it_was_run": "as §1"}, "[25]": {"biological_target": "Neu5Ac(a2-3)Gal(b1-4)GlcNAc(b1-6)[Neu5Ac(a2-3)Gal(b1-3)]GalNAc", "how_it_was_run": "as §1"}, "[26]": {"biological_target": "Neu5Ac(a2-3)Gal(b1-4)GlcNAc6S", "how_it_was_run": "as §1"}, "[27]": {"biological_target": "Neu5Ac(a2-3)Gal(b1-4)[Fuc(a1-3)]GlcNAc", "how_it_was_run": "as §1"}, "[28]": {"biological_target": "Neu5Ac(a2-3)Gal(b1-4)[Fuc(a1-3)]GlcNAc(b1-2)Man", "how_it_was_run": "as §1"}, "[29]": {"biological_target": "Neu5Ac(a2-3)Gal(b1-4)[Fuc(a1-3)]GlcNAc(b1-3)Gal", "how_it_was_run": "as §1"}, "[30]": {"biological_target": "Neu5Ac(a2-3)Gal(b1-4)[Fuc(a1-3)]GlcNAc(b1-3)Gal(b1-4)GlcNAc", "how_it_was_run": "as §1"}, "[31]": {"biological_target": "Neu5Ac(a2-3)Gal(b1-4)[Fuc(a1-3)]GlcNAc(b1-3)Gal(b1-4)[Fuc(a1-3)]GlcNAc(b1-3)Gal(b1-4)[Fuc(a1-3)]GlcNAc", "how_it_was_run": "as §1"}, "[32]": {"biological_target": "Neu5Ac(a2-3)Gal(b1-4)[Fuc(a1-3)]GlcNAc(b1-3)GalNAc", "how_it_was_run": "as §1"}, "[33]": {"biological_target": "Neu5Ac(a2-3)Gal(b1-4)[Fuc(a1-3)]GlcNAc(b1-6)[Gal(b1-3)]GalNAc", "how_it_was_run": "as §1"}, "[34]": {"biological_target": "Neu5Ac(a2-3)Gal(b1-4)[Fuc(a1-3)]GlcNAc(b1-6)[Neu5Ac(a2-3)Gal(b1-3)]GalNAc", "how_it_was_run": "as §1"}, "[35]": {"biological_target": "Neu5Ac(a2-3)Gal(b1-4)[Fuc(a1-3)]GlcNAc6S", "how_it_was_run": "as §1"}, "[36]": {"biological_target": "Neu5Ac(a2-3)Gal6S(b1-4)GlcNAc", "how_it_was_run": "as §1"}, "[37]": {"biological_target": "Neu5Ac(a2-3)Gal6S(b1-4)[Fuc(a1-3)]GlcNAc", "how_it_was_run": "as §1"}},
  "note": "The other results are listed elsewhere or left out.",
  "data": [
    {"binder": "B1", "values": [
      {"measurement": "glycan array binding signal (z-score)", "setting": "[1]", "value": -0.242},
      {"measurement": "glycan array binding signal (z-score)", "setting": "Neu5Ac(a2-3)Gal(b1-4)Glc", "value": -0.399},
      {"measurement": "glycan array binding signal (z-score)", "setting": "[2]", "value": -0.131},
      {"measurement": "glycan array binding signal (z-score)", "setting": "[3]", "value": -0.453},
      {"measurement": "glycan array binding signal (z-score)", "setting": "[4]", "value": 1.8},
      {"measurement": "glycan array binding signal (z-score)", "setting": "[5]", "value": -0.032},
      {"measurement": "glycan array binding signal (z-score)", "setting": "[6]", "value": -0.164},
      {"measurement": "glycan array binding signal (z-score)", "setting": "[7]", "value": -0.306},
      {"measurement": "glycan array binding signal (z-score)", "setting": "[8]", "value": -0.351},
      {"measurement": "glycan array binding signal (z-score)", "setting": "[9]", "value": -0.296},
      {"measurement": "glycan array binding signal (z-score)", "setting": "[10]", "value": 0.322},
      {"measurement": "glycan array binding signal (z-score)", "setting": "[11]", "value": -0.498},
      {"measurement": "glycan array binding signal (z-score)", "setting": "[12]", "value": -0.447},
      {"measurement": "glycan array binding signal (z-score)", "setting": "[13]", "value": -0.373},
      {"measurement": "glycan array binding signal (z-score)", "setting": "[14]", "value": -1.1},
      {"measurement": "glycan array binding signal (z-score)", "setting": "[15]", "value": 0.197},
      {"measurement": "glycan array binding signal (z-score)", "setting": "[16]", "value": -0.328},
      {"measurement": "glycan array binding signal (z-score)", "setting": "[17]", "value": -0.383},
      {"measurement": "glycan array binding signal (z-score)", "setting": "[18]", "value": -0.306},
      {"measurement": "glycan array binding signal (z-score)", "setting": "[19]", "value": -0.647},
      {"measurement": "glycan array binding signal (z-score)", "setting": "[20]", "value": -0.398},
      {"measurement": "glycan array binding signal (z-score)", "setting": "[21]", "value": -0.339},
      {"measurement": "glycan array binding signal (z-score)", "setting": "[22]", "value": -0.369},
      {"measurement": "glycan array binding signal (z-score)", "setting": "[23]", "value": -0.246},
      {"measurement": "glycan array binding signal (z-score)", "setting": "[24]", "value": -0.369},
      {"measurement": "glycan array binding signal (z-score)", "setting": "[25]", "value": -0.416},
      {"measurement": "glycan array binding signal (z-score)", "setting": "[26]", "value": -0.307},
      {"measurement": "glycan array binding signal (z-score)", "setting": "[27]", "value": -0.537},
      {"measurement": "glycan array binding signal (z-score)", "setting": "[28]", "value": -0.566},
      {"measurement": "glycan array binding signal (z-score)", "setting": "[29]", "value": -0.316},
      {"measurement": "glycan array binding signal (z-score)", "setting": "[30]", "value": -0.058},
      {"measurement": "glycan array binding signal (z-score)", "setting": "[31]", "value": -0.394},
      {"measurement": "glycan array binding signal (z-score)", "setting": "[32]", "value": -0.187},
      {"measurement": "glycan array binding signal (z-score)", "setting": "[33]", "value": -1.57},
      {"measurement": "glycan array binding signal (z-score)", "setting": "[34]", "value": -0.276},
      {"measurement": "glycan array binding signal (z-score)", "setting": "[35]", "value": -0.306},
      {"measurement": "glycan array binding signal (z-score)", "setting": "[36]", "value": -0.279},
      {"measurement": "glycan array binding signal (z-score)", "setting": "[37]", "value": -0.565}
    ]}
  ]
}
